Here are results for 120 sequences from the supplement of paper PMC10126150.

The subject of the data set is ATP. The data set can be described thus: switch fluorescence ratio, 500 uM ATP over buffer (Cy3 cluster intensity, sum of 5 cycles each) (fold (ratio)); higher = stronger signal-on switching upon ATP binding; sequences stand for … in TCGTCGGCAGCGTCAGATGTGTATAAGAGACAGTTTTTTTTTTTTTTTTTTTTTTTTT…TC. To be noted: aptamer strand: ATP DNA aptamer (quencher-CACCTGGGGGAGTATTGCGGAGGAAGG + anchor), 100 nM annealed; ATP concentration: 500 uM; one replicate. In short, it runs like this: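 Cy3-labelled switching-strand clusters on a modified Illumina MiSeq flow-cell were annealed to 100 nM quencher-labelled ATP aptamer, imaged in selection buffer, then imaged after 15 min with 500 uM ATP at 22 °C. Five buffer/ATP cycles ran, with NaOH stripping and re-annealing between them. The fluorescence ratio is summed target-cycle over summed buffer-cycle Cy3 intensity per cluster, averaged per switch-domain sequence. Clusters outside 100-1000 RFU were excluded.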

Values marked as one replicate rest on one cluster of the flow cell; about a third of the high ones do not repeat.
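Also: ATP exposure 15 min at 22 °C before imaging.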

Take CAAGAGGGA: the switch fluorescence ratio was determined as 0.982.

With CTGTCATCCT, the switch fluorescence ratio came out at 1.03.

Consider TAATGGACAT, for which the switch fluorescence ratio was determined as 1.01.

Take ATGGGGCGCG: the switch fluorescence ratio came out at 0.993.

As to GCCTTGTAGG, the switch fluorescence ratio was found to be 1.03.

Consider TAAGATTG, for which the switch fluorescence ratio is 0.978.

With TTCAGTGACG, the switch fluorescence ratio was 1.01.

For CGTTCGCCTC, the switch fluorescence ratio is 1.27.

As for TCAGAACAGC, the switch fluorescence ratio turned out to be 0.991.

As for GAGCTGAGTG, the switch fluorescence ratio was 1.01.

With AGAGTTCCAA, the switch fluorescence ratio amounted to 1.

With CACTTATCTG, the switch fluorescence ratio was found to be 0.984.

On to AGATTATCTT, for which the switch fluorescence ratio stood at 0.99.

Take GAAAGTGGGC: the switch fluorescence ratio came out at 1.05.

In the case of TGCTCTTACG, the switch fluorescence ratio was 1.02.

Consider TATAAGCTGG, for which the switch fluorescence ratio came out at 0.997.

As to AGACATAAGG, the switch fluorescence ratio stood at 1.

Regarding CACAGTAGTG, the switch fluorescence ratio was found to be 1.04.

For CGAGCCGCTC, the switch fluorescence ratio turned out to be 1.04.

CACACTCGGG: the switch fluorescence ratio amounted to 1.02.

As for AAATCGTCAA, the switch fluorescence ratio amounted to 1.07.

Turning to CGCCTCGGAC, the switch fluorescence ratio came out at 1.32.

For the sequence CGCGGGAGAT, the switch fluorescence ratio worked out at 1.03.

With TGCATGCGGT, the switch fluorescence ratio was 0.988.

In the case of TGACTATA, the switch fluorescence ratio was 1.04.

Regarding CCCAGGGCCT, the switch fluorescence ratio was 1.25.

CATCGATGTG: the switch fluorescence ratio was determined as 1.02.

For the sequence GGTAAGAAGC, the switch fluorescence ratio worked out at 1.08.

On to TTTTTGTA, for which the switch fluorescence ratio is 0.97.

With TTGAAAAGGT, the switch fluorescence ratio worked out at 0.971.

For the sequence CTTCTAGACA, the switch fluorescence ratio was 0.97.

Regarding GCATATCATA, the switch fluorescence ratio worked out at 0.978.

Turning to AAGAAATTAG, the switch fluorescence ratio was 0.966.

For the sequence GCTAGGCAGC, the switch fluorescence ratio worked out at 0.986.

As for ACGCTTAGGA, the switch fluorescence ratio came to 1.08.

Consider GCCCATCTT, for which the switch fluorescence ratio is 0.956.

As to TGTTCTCAAT, the switch fluorescence ratio turned out to be 1.38.

As for TCACAGTGCA, the switch fluorescence ratio was 1.02.

For the sequence CATGTTACGA, the switch fluorescence ratio was 1.05.

As for GTTCGTACC, the switch fluorescence ratio is 1.06.

Consider TCTGCGAATC, for which the switch fluorescence ratio is 1.61.

As for CGACAATTAT, the switch fluorescence ratio was determined as 1.18.

On to AGACCGTGAC, for which the switch fluorescence ratio is 1.15.

For AGTAGTTAAT, the switch fluorescence ratio came out at 0.969.

AGCCTCTATG: the switch fluorescence ratio came to 1.05.

On to GAAGAATAGC, for which the switch fluorescence ratio was determined as 0.995.

As for TGTTCGGACT, the switch fluorescence ratio came out at 1.

In the case of TGAATGTTGC, the switch fluorescence ratio came out at 0.998.

As to GATATAAGTT, the switch fluorescence ratio is 1.06.

On to AAGATATAAG, for which the switch fluorescence ratio was determined as 0.995.

Regarding GAGTACTACC, the switch fluorescence ratio is 1.06.

With TGGCCTTTAT, the switch fluorescence ratio turned out to be 0.995.

With TCAAGGACCA, the switch fluorescence ratio was 1.04.

Turning to AATCACTGGT, the switch fluorescence ratio was found to be 1.02.

For CCAGTAAGCT, the switch fluorescence ratio worked out at 1.02.

In the case of AGGCATAAGA, the switch fluorescence ratio is 1.06.

Turning to CATGTGGGGC, the switch fluorescence ratio is 1.03.

Regarding TGGTGCTGAT, the switch fluorescence ratio is 1.03.

For TAGGCGGTAC, the switch fluorescence ratio is 1.95.

As to GGCGCGTTCT, the switch fluorescence ratio was found to be 1.03.

With CCGAACAGGG, the switch fluorescence ratio is 1.05.

As for AGGGGACCAA, the switch fluorescence ratio is 0.953.

Turning to CAAAGTATCC, the switch fluorescence ratio was found to be 0.964.

Take CCGATGCGTG: the switch fluorescence ratio came to 2.58.

Take AGCTTTTCGA: the switch fluorescence ratio amounted to 0.996.

Turning to TAGGGCCTAC, the switch fluorescence ratio came to 1.06.

As for TTCAGACGGG, the switch fluorescence ratio worked out at 1.02.

With GCGCCGCGGA, the switch fluorescence ratio worked out at 1.29.

Turning to TATTAGAGCC, the switch fluorescence ratio turned out to be 0.966.

As to GACTGTATGG, the switch fluorescence ratio came out at 1.08.

For the sequence ACGATTACCT, the switch fluorescence ratio came out at 1.41.

CGGGTATAAT: the switch fluorescence ratio was determined as 0.953.

With TCGGTCTTTA, the switch fluorescence ratio is 1.02.

On to TCACTCGACC, for which the switch fluorescence ratio was determined as 1.08.

On to GTGCTAGGAC, for which the switch fluorescence ratio stood at 1.04.

Consider TGATGACTGG, for which the switch fluorescence ratio came out at 0.935.

As to AAAGGTTGGA, the switch fluorescence ratio amounted to 1.01.

As to AAGTCGGTCA, the switch fluorescence ratio was found to be 0.989.

As to TATTGGCCGT, the switch fluorescence ratio came to 0.964.

For the sequence TTAACATGGT, the switch fluorescence ratio is 1.05.

Consider CTTTCATTAG, for which the switch fluorescence ratio was found to be 0.971.

Consider GCTCGTAATA, for which the switch fluorescence ratio was determined as 2.77.

As to ATAAAGCCA, the switch fluorescence ratio stood at 1.01.

Consider AAGGAAGATT, for which the switch fluorescence ratio was 1.01.

Consider GGCTTCCGTT, for which the switch fluorescence ratio was 1.1.

Take ACCGTCCTGG: the switch fluorescence ratio stood at 0.981.

Turning to CCCCGGGTTC, the switch fluorescence ratio stood at 1.49.

Regarding TCTGCTCCGG, the switch fluorescence ratio came to 1.13.

For AGGTACCTTT, the switch fluorescence ratio stood at 0.946.

CTGTTCAAAA: the switch fluorescence ratio is 1.02.

With GTTTAGTGTT, the switch fluorescence ratio is 0.973.

AACGACATGA: the switch fluorescence ratio was determined as 1.08.

In the case of GAAGCGTGGC, the switch fluorescence ratio was 1.11.

AACCCAGATA: the switch fluorescence ratio was 0.973.

As to CAAACACGTC, the switch fluorescence ratio is 0.965.

As for GGTATACTGG, the switch fluorescence ratio turned out to be 0.985.

As to GATTTCGG, the switch fluorescence ratio is 0.989.

Turning to CCTAAACGGA, the switch fluorescence ratio came to 1.01.

As for GTGAGTGGGA, the switch fluorescence ratio was 1.04.

In the case of TAGCTTAGGG, the switch fluorescence ratio was 0.967.

Consider TATTGGTAC, for which the switch fluorescence ratio came out at 1.02.

Consider TAGGGATCTG, for which the switch fluorescence ratio worked out at 0.997.

On to CGTACTGGTA, for which the switch fluorescence ratio was found to be 0.994.

For CGTCTTTGCG, the switch fluorescence ratio turned out to be 0.938.

Regarding GGAGCTAAAG, the switch fluorescence ratio was 1.31.

For the sequence AACGCTTCGT, the switch fluorescence ratio turned out to be 1.01.

For GCTTAACATG, the switch fluorescence ratio was 1.

Regarding ATAGTTC, the switch fluorescence ratio came to 1.02.

Consider TATTGACCTG, for which the switch fluorescence ratio was 0.973.

With AAGTAAGTTC, the switch fluorescence ratio stood at 0.999.

In the case of TCAGGTTGCC, the switch fluorescence ratio turned out to be 1.04.

On to TTTAAAATGA, for which the switch fluorescence ratio stood at 0.985.

Consider ATAAGTGACC, for which the switch fluorescence ratio was determined as 1.04.

On to TATTAACGCT, for which the switch fluorescence ratio was determined as 0.998.

Take CTTTGTCTAT: the switch fluorescence ratio was 1.02.

Regarding GCTTTATACT, the switch fluorescence ratio was 1.06.

For AATTATGGAG, the switch fluorescence ratio turned out to be 1.02.

ATATAGTATT: the switch fluorescence ratio worked out at 1.02.

Regarding TACATAGGC, the switch fluorescence ratio worked out at 1.03.

As for ACTTTATGAG, the switch fluorescence ratio stood at 1.03.
